Data: the supplement of paper PMC4967469
Lines with a small IC50 respond at low doses; a limit (>, <) means that the fit lies beyond the doses tested. AUC, from the same fit, is the share of area under the viability curve across the 256-fold dose range; values near 1 show little effect. For part of these data: A top dose marked as inferred is not printed in the source and was worked back from the curve model. For part of these data: An entry number marks a drug with two screens in the source, which often give different values.

Experiments:
Test in all cases: Viability of human cancer cell lines after 72 h of drug (GDSC screen)
OSI-906 = compound: C[C@]1(O)C[C@@H](c2nc(-c3ccc4ccc(-c5ccccc5)nc4c3)c3c(N)nccn32)C1 [OSI-906]; conditions: top dose 2.56 µM; top dose inferred
Procedure: (§1)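 Human cancer cell lines in 384-well plates, medium with 10% serum, drug for 72 h over a 256-fold dose range (nine 2-fold or five 4-fold steps up to the top dose). Adherent lines were fixed and stained with the nucleic acid dye Syto60, suspension lines read with resazurin; signal relative to control wells, capped at 0 and 100%. One two-parameter sigmoid per drug and line, fitted in a mixed model over all curves with the slope shared within a line.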

NSC-207895 = compound: CN1CCN(c2ccc([N+](=O)[O-])c3no[n+]([O-])c23)CC1 [NSC-207895]; conditions: top dose 20 µM; top dose inferred
Procedure: as §1

Belinostat = compound: O=C(/C=C/c1cccc(S(=O)(=O)Nc2ccccc2)c1)NO [Belinostat]; conditions: top dose 20 µM; top dose inferred
Procedure: as §1

YM155 = compound: COCC[n+]1c2c(n(Cc3cnccn3)c1C)C(=O)c1ccccc1C2=O [YM155]; conditions: top dose 5.12 µM
Procedure: as §1

FTI-277 = compound: COC(=O)[C@H](CCSC)NC(=O)c1ccc(NC[C@@H](N)CS)cc1-c1ccccc1 [FTI-277]; conditions: top dose 1.024 µM; top dose inferred
Procedure: as §1

AMG-706 = compound: CC1(C)CNc2cc(NC(=O)c3cccnc3NCc3ccncc3)ccc21 [AMG-706]; conditions: top dose 2 µM; top dose inferred
Procedure: as §1

JQ1 = compound: Cc1sc2c(c1C)C(c1ccc(Cl)cc1)=N[C@@H](CC(=O)OC(C)(C)C)c1nnc(C)n1-2 [JQ1]
Procedure: as §1

SB-715992 = compound: Cc1ccc(C(=O)N(CCCN)[C@@H](c2nc3cc(Cl)ccc3c(=O)n2Cc2ccccc2)C(C)C)cc1 [SB-715992]; conditions: top dose 0.128 µM; top dose inferred
Procedure: as §1

JNJ-26854165 = compound: c1ccc2c(CCNc3ccc(Nc4ccncc4)cc3)c[nH]c2c1 [JNJ-26854165]; conditions: top dose 10 µM
Procedure: as §1

JNK Inhibitor VIII = compound: CCOc1nc(NC(=O)Cc2cc(OC)ccc2OC)cc(N)c1C#N [JNK Inhibitor VIII]; conditions: top dose 10 µM; top dose inferred
Procedure: as §1

Docetaxel = compound: CC(=O)O[C@@]12CO[C@@H]1C[C@H](O)[C@@]1(C)C(=O)[C@H](O)C3=C(C)[C@@H](OC(=O)[C@H](O)[C@@H](NC(=O)OC(C)(C)C)c4ccccc4)C[C@@](O)([C@@H](OC(=O)c4ccccc4)[C@H]21)C3(C)C [Docetaxel]; conditions: top dose 0.0125 µM
Procedure: as §1

[1] = top dose 1 µM, screen: GDSC drug entry 1218, top dose inferred
[2] = top dose 2.56 µM, screen: GDSC drug entry 163

Cell Line	AUC (OSI-906)	IC50 (OSI-906)	AUC (NSC-207895)	IC50 (NSC-207895)	AUC (Belinostat)	IC50 (Belinostat)	AUC (YM155)	IC50 (YM155)	AUC (FTI-277)	IC50 (FTI-277)	AUC (AMG-706)	IC50 (AMG-706)	AUC (JQ1; [1])	IC50 (JQ1; [1])	AUC (JQ1; [2])	IC50 (JQ1; [2])	AUC (SB-715992)	IC50 (SB-715992)	AUC (JNJ-26854165)	IC50 (JNJ-26854165)	AUC (JNK Inhibitor VIII)	IC50 (JNK Inhibitor VIII)	AUC (Docetaxel)	IC50 (Docetaxel)
U-118-MG (glioma, adherent)	0.975	> 2560 nM	0.986	> 20000 nM	0.642	3290 nM	0.6	630 nM	0.97	> 1020 nM	0.969	> 2000 nM	0.926	> 1000 nM	0.856	> 2560 nM	0.983	> 128 nM	0.701	2530 nM	0.983	> 10000 nM	0.907	> 12.5 nM
UACC-62 (melanoma, adherent)	0.969	> 2560 nM	0.987	> 20000 nM	0.613	2540 nM	0.22	49.2 nM	0.95	> 1020 nM	0.982	> 2000 nM	0.962	> 1000 nM	0.774	996 nM	0.955	> 128 nM	0.913	> 10000 nM	0.977	> 10000 nM	0.764	4.49 nM
UACC-893 (breast, adherent)	0.977	> 2560 nM	0.974	> 20000 nM	0.67	4390 nM	0.455	231 nM	0.962	> 1020 nM	0.976	> 2000 nM	0.98	> 1000 nM	0.843	> 2560 nM	0.874	> 128 nM	0.833	9800 nM	0.973	> 10000 nM	0.904	> 12.5 nM
VMRC-RCZ (kidney, adherent)	0.968	> 2560 nM	0.87	> 20000 nM	0.44	836 nM	0.077	< 20 nM	0.98	> 1020 nM	0.984	> 2000 nM	0.972	> 1000 nM	0.563	246 nM	0.82	89.8 nM	0.904	> 10000 nM	0.984	> 10000 nM	0.683	2.78 nM
WM35 (melanoma, adherent)	0.817	1440 nM	0.91	> 20000 nM	0.307	357 nM	0.098	< 20 nM	0.958	> 1020 nM	0.985	> 2000 nM	0.98	> 1000 nM	0.475	137 nM	0.593	14.4 nM	0.877	> 10000 nM	0.979	> 10000 nM	0.459	0.602 nM
WM793B (melanoma, adherent)	0.968	> 2560 nM	0.981	> 20000 nM	0.549	1730 nM	0.107	< 20 nM	0.895	> 1020 nM	0.984	> 2000 nM	0.982	> 1000 nM	0.523	187 nM	0.901	> 128 nM	0.851	8960 nM	0.983	> 10000 nM	0.753	4.57 nM
WM1552C (melanoma, adherent)	0.971	> 2560 nM	0.983	> 20000 nM	0.418	744 nM	0.135	22.4 nM	0.95	> 1020 nM	0.986	> 2000 nM	0.986	> 1000 nM	0.785	1100 nM	0.724	34.9 nM	0.925	> 10000 nM	0.986	> 10000 nM	0.791	5.67 nM
WM-115 (melanoma, adherent)	0.975	> 2560 nM	0.859	> 20000 nM	0.454	913 nM	0.074	< 20 nM	0.978	> 1020 nM	0.978	> 2000 nM	0.961	> 1000 nM	0.959	> 2560 nM	0.613	17.6 nM	0.945	> 10000 nM	0.979	> 10000 nM	0.737	4.39 nM
YAPC (pancreas, adherent)	0.869	> 2560 nM	0.985	> 20000 nM	0.728	6620 nM	0.209	34.7 nM	0.979	> 1020 nM	0.985	> 2000 nM	0.98	> 1000 nM	0.903	> 2560 nM	0.973	> 128 nM	0.861	> 10000 nM	0.982	> 10000 nM	0.818	9.37 nM
huH-1 (liver, adherent)	0.968	> 2560 nM	0.984	> 20000 nM	0.974	> 20000 nM	0.983	> 5120 nM	0.982	> 1020 nM	0.931	> 2000 nM	0.974	> 1000 nM	0.973	> 2560 nM	0.984	> 128 nM	0.845	9950 nM	0.968	> 10000 nM	0.883	> 12.5 nM
